Reference: the supplement of paper PMC7826260
Some of the results follow. Cleavage of a single-stranded DNA pool by Rep nickase domains was read by sequencing (3 µM enzyme, 1 h, 37 °C); shown is the middle of each 90-letter strand. Uncut reads are compared with the no-enzyme pool on a log2 scale; uncut sequences lie near 0, cut ones below; no hit call is given. Counts are relative to all reads; where an enzyme cuts many sequences, the uncut ones exceed 0.

Columns and labels:
Experiment in all cases: uncleaved DNA left, log2 of reads against the no-enzyme library (log2 ratio); higher = less cleavage (more negative = more Rep cleavage of the k-mer); sequences stand for … in CTCGTCCG…ACCGGAGA
[1] = tested on: T1, Rep nickase domain of Muscovy duck circovirus
T1 sequence (residues 1-111, tag not shown): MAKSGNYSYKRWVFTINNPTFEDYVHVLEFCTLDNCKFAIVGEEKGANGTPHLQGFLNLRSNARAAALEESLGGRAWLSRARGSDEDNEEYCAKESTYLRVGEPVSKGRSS
Method: (§1)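 A pool of 90-nt single-stranded DNAs with seven random bases just before the constant AC of the nick site (name = the seven bases) was cut by 3 µM recombinant His6-SUMO-tagged Rep nickase domain (300 nM DNA, 50 mM HEPES pH 8.0, 50 mM NaCl, 1 mM MnCl2, 1 h, 37 °C, three replicates). Uncut DNA was amplified and sequenced.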

[2] = tested on: T2, Rep nickase domain of banana bunchy top virus
T2 sequence (residues 1-94, tag not shown): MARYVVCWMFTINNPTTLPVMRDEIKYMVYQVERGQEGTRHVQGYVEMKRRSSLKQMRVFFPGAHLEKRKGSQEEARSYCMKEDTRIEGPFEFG
Method: as §1

[3] = tested on: T3, Rep nickase domain of cabbage leaf curl virus
T3 sequence (residues 1-116, tag not shown): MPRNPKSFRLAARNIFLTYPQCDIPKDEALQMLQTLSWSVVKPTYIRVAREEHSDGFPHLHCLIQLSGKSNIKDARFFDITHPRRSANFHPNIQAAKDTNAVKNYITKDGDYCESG
Method: as §1

[4] = tested on: T4, Rep nickase domain of chickpea chlorotic dwarf virus
T4 sequence (residues 1-124, tag not shown): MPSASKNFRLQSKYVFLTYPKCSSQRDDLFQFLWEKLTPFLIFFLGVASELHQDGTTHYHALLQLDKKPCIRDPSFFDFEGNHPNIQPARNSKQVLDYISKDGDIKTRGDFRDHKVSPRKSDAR
Method: as §1

[5] = tested on: T5, Rep nickase domain of faba bean necrotic yellows virus
T5 sequence (residues 1-98, tag not shown): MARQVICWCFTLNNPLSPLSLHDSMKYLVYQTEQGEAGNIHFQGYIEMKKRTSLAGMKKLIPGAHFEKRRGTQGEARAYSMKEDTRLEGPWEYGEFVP
Method: as §1

[6] = tested on: T6, Rep nickase domain of maize striate mosaic virus
T6 sequence (residues 1-117, tag not shown): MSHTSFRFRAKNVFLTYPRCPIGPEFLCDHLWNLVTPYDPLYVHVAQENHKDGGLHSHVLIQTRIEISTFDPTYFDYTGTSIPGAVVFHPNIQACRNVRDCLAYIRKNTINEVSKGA
Method: as §1

[7] = tested on: T7, Rep nickase domain of porcine circovirus 2
T7 sequence (residues 2-116, tag not shown): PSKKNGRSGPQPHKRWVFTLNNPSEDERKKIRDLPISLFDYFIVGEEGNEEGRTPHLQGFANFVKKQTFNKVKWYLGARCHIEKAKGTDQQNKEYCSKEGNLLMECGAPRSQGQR
Method: as §1

[8] = tested on: T8, Rep nickase domain of tomato golden mosaic virus
T8 sequence (residues 1-124, tag not shown): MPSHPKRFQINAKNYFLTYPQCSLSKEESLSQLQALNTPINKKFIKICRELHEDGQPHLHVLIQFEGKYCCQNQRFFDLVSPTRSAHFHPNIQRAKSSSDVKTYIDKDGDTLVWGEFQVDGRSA
Method: as §1

[9] = tested on: T9, Rep nickase domain of tomato yellow leaf curl virus
T9 sequence (residues 1-136, tag not shown): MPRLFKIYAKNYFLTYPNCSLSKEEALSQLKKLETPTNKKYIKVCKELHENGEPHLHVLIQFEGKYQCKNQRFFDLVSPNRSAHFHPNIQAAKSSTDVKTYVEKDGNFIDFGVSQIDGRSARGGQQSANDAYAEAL
Method: as §1

[10] = tested on: T10, Rep nickase domain of wheat dwarf virus
T10 sequence (residues 1-137, tag not shown): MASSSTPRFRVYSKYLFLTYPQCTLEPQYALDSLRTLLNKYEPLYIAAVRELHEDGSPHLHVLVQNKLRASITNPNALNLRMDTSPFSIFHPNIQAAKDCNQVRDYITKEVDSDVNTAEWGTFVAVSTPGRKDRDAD
Method: as §1

| Sequence | uncleaved DNA left (log2) [1] | uncleaved DNA left (log2) [2] | uncleaved DNA left (log2) [3] | uncleaved DNA left (log2) [4] | uncleaved DNA left (log2) [5] | uncleaved DNA left (log2) [6] | uncleaved DNA left (log2) [7] | uncleaved DNA left (log2) [8] | uncleaved DNA left (log2) [9] | uncleaved DNA left (log2) [10] |
| --- | --- | --- | --- | --- | --- | --- | --- | --- | --- | --- |
| AAGCTTT | -0.0186 | 0.0133 | -0.0187 | -2.22 | -0.0177 | 0.742 | -3.32 | 0.193 | 0.0572 | -0.0346 |
| CACCCGA | -0.129 | -0.15 | -0.423 | -0.882 | -0.15 | -1.1 | -0.162 | -0.17 | -0.0614 | -0.16 |
| CGATAAT | -2.46 | -0.0907 | -0.186 | -1.04 | 0.0114 | -0.205 | -2.92 | 0.0191 | 0.00881 | -0.115 |
| ATAAAAT | -0.0203 | 0.0416 | 0.161 | -0.716 | -0.0444 | -0.342 | 0.0321 | 0.174 | 0.0272 | 0.117 |
| TTGTAGT | -2.02 | -0.352 | -0.57 | -1.13 | -0.536 | -1.17 | -3.58 | -0.18 | -0.0507 | -0.067 |
| CTGGCGT | -0.0806 | -0.157 | -0.772 | -0.652 | -0.0965 | -0.771 | -0.0705 | -0.249 | -0.128 | -0.214 |
| GCCATTC | -0.0216 | 0.024 | -0.18 | 0.351 | -0.00897 | -0.412 | 0.0982 | -0.0035 | 0.0443 | 0.0191 |
| AATCCGT | -0.139 | -0.147 | -0.414 | -1.13 | -0.102 | -1.23 | -0.177 | -0.0313 | -0.0985 | -0.168 |
| CAGGCTT | -0.0172 | -0.309 | 0.113 | -0.529 | -0.123 | 0.959 | -2.67 | 0.0179 | -0.142 | -0.068 |
| GACACAC | -0.0323 | -0.00383 | 0.194 | 0.623 | -0.0565 | 0.351 | 0.129 | 0.0222 | 0.116 | 0.056 |
| AAGTGCT | -0.572 | -1.41 | -0.484 | -1.06 | -1.19 | -0.684 | -3.98 | -0.0936 | -0.011 | 0.00841 |
| TCATCCA | -0.0555 | 0.0447 | 0.0847 | -1.1 | -0.0299 | -0.293 | -0.13 | -0.0114 | -0.0447 | -0.067 |
| GGTCATC | -0.0882 | 0.114 | 0.736 | 1.72 | -0.00953 | 2.14 | 0.193 | -0.0443 | 0.0995 | 0.121 |
| GGCCCCC | -0.0183 | 0.168 | 0.45 | 0.919 | -0.138 | 1.54 | 0.0196 | -0.0215 | -0.0417 | 0.0856 |
| GTTAAGG | -0.0298 | -0.0313 | 0.362 | 1.33 | -0.0183 | 1.7 | 0.174 | 0.0631 | -0.108 | 0.0956 |
| GCAGCAT | 0.0983 | 0.153 | 0.364 | 0.928 | 0.0596 | 0.43 | 0.218 | 0.116 | 0.101 | 0.111 |
| ACTGCGA | 0.0223 | 0.0304 | -0.485 | 0.303 | -0.0758 | -0.386 | 0.068 | 0.0294 | -0.0331 | -0.19 |
| CTCCCTT | -0.0339 | -0.171 | 0.0312 | -1.64 | 0.0343 | -0.415 | -0.104 | -0.172 | 0.106 | -0.00726 |
| GTTGCTA | 0.019 | 0.0187 | 0.187 | 0.726 | 0.0592 | 1.22 | 0.109 | 0.0178 | 0.0817 | 0.115 |
| GTAAACC | 0.00944 | 0.088 | 0.27 | 0.64 | -0.0193 | 1.38 | 0.00414 | 0.0867 | -0.00747 | 0.0553 |
| GGGTACC | 0.166 | 0.202 | 0.792 | 1.8 | 0.117 | 2.18 | 0.26 | 0.000506 | 0.0431 | 0.206 |
| CGTAGAT | 0.167 | 0.168 | 0.317 | 0.628 | 0.0741 | 0.857 | 0.0455 | 0.00771 | 0.0642 | 0.0684 |
| AGTAGTA | -0.103 | -0.0762 | -0.0595 | -0.616 | -0.136 | -0.251 | -1.22 | -0.0918 | -0.0145 | -0.0118 |
| AGAGCAC | 0.0509 | 0.132 | 0.195 | 0.262 | 0.111 | 0.377 | 0.0109 | 0.0584 | 0.121 | 0.165 |
| AGTTGCC | 0.0664 | 0.00896 | -0.596 | -0.424 | 0.204 | -1.12 | 0.184 | -0.0335 | 0.141 | -0.0539 |
| CTGTCAC | 0.00601 | 0.0198 | -0.0431 | -0.17 | -0.0306 | -0.645 | -0.0474 | -0.191 | 0.0424 | 0.0252 |
| GCGGGGA | 0.0889 | 0.0023 | 0.762 | 1.11 | -0.00685 | 1.91 | 0.238 | -0.0303 | -0.0799 | 0.0747 |
| TCGCGTG | -0.0413 | -0.0961 | -0.545 | -0.816 | 0.0412 | -0.789 | 0.0918 | 0.0619 | -0.172 | -0.153 |
| ACTGCTA | -0.134 | -0.16 | -0.343 | -0.357 | -0.0101 | -0.633 | -0.109 | -0.0512 | 0.0113 | -0.107 |
| GTATAAG | 0.156 | 0.194 | -0.534 | -0.389 | 0.0469 | -0.784 | 0.193 | 0.0983 | 0.176 | 0.0203 |
